PMC4336329 (PLoS ONE, 2015)
Hit rate of the full screen: of about 310,000 compounds, about 14,000 (4.5%) showed an effect of 50% or more. Effects have a minus sign here. The list shows a part of the results.

Target: human ether-à-go-go-related gene (hERG) potassium channel (human, UniProt Q12809)
Experiment: primary screen, population patch clamp on CHO cells stably expressing hERG
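Further: peak tail current of the secondary pulse compared with the same well before compound.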

human ether-à-go-go-related gene (hERG) potassium channel, sequence (Q12809 whole entry, looked up): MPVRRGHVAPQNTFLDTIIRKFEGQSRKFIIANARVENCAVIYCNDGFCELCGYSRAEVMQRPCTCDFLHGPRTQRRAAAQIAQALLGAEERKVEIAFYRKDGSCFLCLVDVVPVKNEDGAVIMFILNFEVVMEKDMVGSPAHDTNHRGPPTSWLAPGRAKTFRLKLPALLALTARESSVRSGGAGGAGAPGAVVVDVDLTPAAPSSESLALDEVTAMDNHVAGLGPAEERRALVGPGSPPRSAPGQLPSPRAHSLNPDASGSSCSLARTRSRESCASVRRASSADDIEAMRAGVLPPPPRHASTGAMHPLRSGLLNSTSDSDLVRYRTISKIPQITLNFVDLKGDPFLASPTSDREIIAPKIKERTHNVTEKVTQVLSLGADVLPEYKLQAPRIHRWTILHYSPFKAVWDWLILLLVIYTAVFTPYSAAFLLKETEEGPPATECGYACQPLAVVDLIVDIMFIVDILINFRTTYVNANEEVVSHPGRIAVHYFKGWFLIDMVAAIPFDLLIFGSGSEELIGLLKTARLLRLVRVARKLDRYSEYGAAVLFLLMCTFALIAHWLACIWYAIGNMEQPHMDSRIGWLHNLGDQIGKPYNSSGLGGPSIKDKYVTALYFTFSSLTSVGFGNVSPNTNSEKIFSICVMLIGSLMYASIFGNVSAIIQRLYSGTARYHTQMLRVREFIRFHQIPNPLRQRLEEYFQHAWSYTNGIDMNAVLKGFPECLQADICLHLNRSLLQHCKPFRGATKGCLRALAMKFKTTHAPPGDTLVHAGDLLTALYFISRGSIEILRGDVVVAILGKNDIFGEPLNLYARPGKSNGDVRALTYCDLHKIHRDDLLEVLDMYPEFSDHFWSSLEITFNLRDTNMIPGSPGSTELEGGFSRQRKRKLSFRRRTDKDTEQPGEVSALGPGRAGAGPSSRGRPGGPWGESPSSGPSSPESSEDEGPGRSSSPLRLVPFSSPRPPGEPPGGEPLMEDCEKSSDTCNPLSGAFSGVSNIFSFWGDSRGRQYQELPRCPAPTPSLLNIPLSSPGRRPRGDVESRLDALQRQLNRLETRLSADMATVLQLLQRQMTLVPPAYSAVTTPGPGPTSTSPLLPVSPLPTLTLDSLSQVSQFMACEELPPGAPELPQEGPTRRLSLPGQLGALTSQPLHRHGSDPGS

| SMILES | hERG current change (%, negative = inhibition) at 10uM |
| --- | --- |
| COc1ccc(CC(=O)NNC(=O)c2nn(Cc3ccccc3)c(=O)c3ccccc23)cc1OC | -9.27% |
| Cc1nn(C)c(C(=O)N/N=C/c2ccccc2)c1[N+](=O)[O-] | 6.25% |
| CN=C1S/C(=C/c2cn(CC(=O)OC)c3ccccc23)C(=O)N1C | 11.1% |
| O=C(O)CCCn1cc(NC(=O)COc2ccc(F)cc2)cn1 | 16.5% |
| C=C(C)COc1ccc(-c2nc(N)ncc2Oc2ccccc2OC)c(O)c1 | -0.445% |
| CCOC(=O)N1CCN(C(=O)CSc2nnc(-c3cccs3)o2)CC1 | -12.4% |
| CC(C)(C)c1ccc(-c2n[nH]c(=S)n2/N=C/c2ccncc2)cc1 | 13% |
| CN1CCN(C(=S)NC(CC(=O)c2ccccc2)c2ccccc2)CC1 (stereo not shown) | -5.32% |
| Clc1cccc(Cl)c1CN1CCN(c2ncccn2)CC1 | 17.6% |
| CCOc1ccccc1C(=O)Nc1nnc(COC)s1 | 3.41% |
| COc1cc(C(=O)O/N=C(\N)c2ccncc2)cc(OC)c1OC | -13.3% |
| COC(=O)C1CCCCN1C(=O)c1cccc(OC2CCN(C(=O)C3CC3)CC2)c1 (stereo not shown) | 3.79% |
| CCCCc1ccc(-c2csc(/C(C#N)=C/c3ccco3)n2)cc1 | -9.2% |
| CC(C)N1C(=O)CCC1C(=O)N1CCN(c2ccc(F)cc2)CC1 (stereo not shown) | -1.84% |
| O=C(CNC(=O)c1cccs1)OCc1ccc(Br)cc1 | -6.43% |
| CNC(=O)C1CC(=O)N(Cc2ccc(OC)c(OC)c2)C(=Nc2ccc(OC)cc2)S1 (stereo not shown) | -6.01% |
| Cc1cc(C(=O)CN2C(=O)NC(c3ccccc3)(c3ccccc3)C2=O)c(C)n1Cc1ccccc1 | 1.33% |
| O=C(C1Cc2ccccc2CN1S(=O)(=O)c1cccs1)N1CCCCCC1 (stereo not shown) | -12.5% |
| N#Cc1cc2c(nc1SCC(=O)N1CCCCC1)CCCC2 | -2.52% |
| O=C1NC(=O)N(Cc2ccco2)C(=O)/C1=C\c1cccn1CCOc1ccc(Cl)cc1 | 11.1% |
| O=C(COC(=O)COc1ccccc1[N+](=O)[O-])Nc1cccc(Br)c1 | 9.05% |
| O=C(CCC(=O)c1cccs1)c1cccs1 | 11.8% |

| SMILES | hERG current change (%, negative = inhibition) at 10uM |
| --- | --- |
| CCC(C)NC(=O)CSC1=Nc2ccccc2C2=NC(CCC(=O)NCc3ccco3)C(=O)N12 (stereo not shown) | -1.01% |
| COc1ccc(CN(C(=O)c2cc(=O)c3ccccc3o2)C2CCS(=O)(=O)C2)cc1OC (stereo not shown) | 3.29% |
| CC(=O)c1sc(NC(=O)c2cccc(N3C(=O)CCC3=O)c2)nc1-c1ccccc1 | 20% |
| Cc1[nH]cnc1CSCc1ccc(Cl)cc1.Cl | -29% |
| Cc1ccc(OCCCCN2CCc3ccccc3C2)cc1.Cl | -34.9% |
| Cc1ccc2c(CC(=O)NCC(=O)Nc3c(C)cccc3C)coc2c1 | 1.13% |
| C=CCn1c(SCC(=O)Nc2cc(Cl)ccc2C(=O)O)nc2sc(C)c(C)c2c1=O | 6.55% |
| NC(=O)c1oc2ccccc2c1NC(=O)C1CCCCC1 | 0.903% |
| CC(C)CCNC(=O)c1onc(CSc2ccc(Cl)cc2)c1C(=O)NCCC(C)C | 24.5% |
| O=C(Cc1ccc(Cl)cc1Cl)NCc1cccnc1 | 3.57% |
| CC1CCCN(C2=NC(=O)/C(=C/c3cn(-c4ccccc4)nc3-c3cccc(S(=O)(=O)N(C)C)c3)S2)C1 (stereo not shown) | 1.65% |
| COc1ccc2cc(C(=O)N3CCCCCC3)sc(=O)c2c1OC | -1.59% |
| Cc1ccc(-c2nc(N)nc(N)n2)c(C)c1 | 13.7% |
| CCOc1cc(/C=C2\C(=O)NC(=O)N(CCc3ccc(F)cc3)C2=O)ccc1O | 2.66% |
| COc1ccc(/C=C2/CCc3ccccc3C2=O)cc1OC | -19.8% |
| CCOc1ccc(Br)cc1CNCc1cccnc1 | -10.2% |
| C#CCCCCCCCCC(=O)NCCCC | -2.76% |
| Cc1nc2oc(C(=O)c3ccccc3)c(N)c2c2c1COC(C)(C)C2 | 2.84% |
| COC(=O)Cc1c[nH]c2ccc(OCC(O)CNC(C)C)cc12.O=C(O)c1ccccc1 (stereo not shown) | 6.06% |
| Cc1nn2cnc3sc4c(c3c2nc1=O)CCCC4 | -3.17% |
| CCCc1cc(NCCCN(C)C)n2c(nc3ccccc32)c1C#N | 0.382% |
